Measurements reported in the supplement of paper PMC11417369.
± gives the standard deviation of the averaged measurements. Some of the results follow.

The sequences below were run on PfAP2-LT AP2 domain (GST-tagged) (assay: gcPBM binding intensity (ln(normalized median fluorescence intensity)); higher = stronger DNA binding).
How it was run: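 Plasmodium falciparum DNA-binding domains carrying a GST tag were expressed in E. coli and applied for 1 h, at about 25 μg on average, to an Agilent 4 × 180k array. The array held primer-extended double-stranded 36-bp intergenic genomic probes together with negative controls, and binding took place in 1× PBS with 1% milk, 0.2 mg/ml BSA, 0.5% salmon testes DNA and 0.03% Triton X-100. An Alexa488 anti-GST antibody detected bound protein, and the array was scanned at 488 nm. Binding intensity is taken as the highest Masliner-normalised natural-log median intensity across replicate spots of either probe orientation.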

Sequence	gcPBM binding intensity (ln)
ACAGTATAAAAATAAGCACACACACTAATATATATT [CACACA_site8212]	9.79 ± 0.35
TATATATTAATATATGCATGTTAATATATTATGAAA [TGCATGCA_site61]	8.48 ± 0.35
TAAAATATATTTTTCTGTACACAAAAATATATTAAA [XGTACX_site2813]	8.3 ± 0.41
TGATTATAGACACGCGCACACACAACAAAAAAAAAA [CACACA_site9179]	9.43 ± 0.43
TAAGTTTGTGCAAGTGGTACATATATATAAATTTAT [XGTACX_site5944]	8.73 ± 0.45
TTAGCAACTATTACTACACACATTTGTATTTAATTT [CACACA_site4961]	9.09 ± 0.45
TTTACATAAACTGGTAGTACATAATATGGCTTAAAA [XGTACX_site5002]	8.59 ± 0.31
TGGATTTTTTGATTTTTGTTTTTCTTCTTTCCCCCC [CACACA_negctrl_site1471]	8.64 ± 0.28
TAATAATAATTAAAATGAGATAAATAAATATATATA [TGCATGCA_negctrl_site322]	8.44 ± 0.39
TCTTTATATCATCTTTCTAAATATATATATATATAA [CACACA_negctrl_site77]	8.54 ± 0.4
CTATTAATGTACTCTACACACATATAAGAGGACATT [CACACA_site471]	8.92 ± 0.37
TTATATATTTATAAATGTACGTATAAGAATTTAATT [XGTACX_site8541]	8.44 ± 0.35
AATGTAAAACGAAATGCACACTATGGAAAATATAAA [CACACA_site4559]	9.21 ± 0.43
AAAAATAAAAATGAGTGTACTTTAAGCCCTACACTT [XGTACX_site828]	8.78 ± 0.46
TATAATATTATAGTTTGTACGAAAATAATATATTTA [XGTACX_site8673]	8.38 ± 0.38
TTTTACTATGATATTTATATATCTATATATGTATAT [XGTACX_negctrl_site499]	8.77 ± 0.47
AACCAAAATTTTTGTCGTACAAAAGAGCAAATGTAG [XGTACX_site6472]	8.9 ± 0.47
ACGATGTTCATCACTACACACACAAAGAAATATATA [CACACA_site8859]	9.26 ± 0.37
TATATATATATATATATATATATTAATATATATTAC [XGTACX_negctrl_site103]	9.43 ± 0.26
AAATTAATAAATATTTTTATAAATTATAATATTAAT [GTGCAC_negctrl_site533]	8.04 ± 0.39
CAAAATTTATATAATAGTACACATGATCTTTTTTCT [XGTACX_site8956]	8.62 ± 0.5
TATATATATATATAATGTACGAATAGAAAAAAAAAA [XGTACX_site7231]	8.79 ± 0.44

Sequence	gcPBM binding intensity (ln)
GATACAAAATGGGGAACACACACATATATATATATA [CACACA_site9278]	10.1 ± 0.22
AAAAGTGTATGTAGGTGTACTTTTTATTTCTTCTTT [XGTACX_site8819]	8.91 ± 0.38
TAAAGGCAAACAAACACACACACATATATACCTATA [CACACA_site7078]	9.78 ± 0.18
ATAACAAAATAAAACACACACACAAATGTACCTATA [CACACA_site7190]	9.75 ± 0.3
TATTTATAAATATAAACACACAACATTATATGCATA [CACACA_site5748]	8.8 ± 0.4
TACATATTTGTATATGCACACATAAATTTTTCCATT [CACACA_site9148]	8.96 ± 0.41
AAATATTTATACCACACACACATACCTCTATTTGTA [CACACA_site6957]	9.71 ± 0.18
AATGGATTAGCTAGCACACACAAAAAAAAAAAAAAA [CACACA_site3031]	9.14 ± 0.58
TAAATATAGGGTAATAGTACATAATTATATTCTTTT [XGTACX_site3883]	8.65 ± 0.49
TTTTTTTTTTTTTAATGTACCCATGGGCACATAGGT [XGTACX_site486]	8.31 ± 0.47
TATATTTATATATTAGTGCACTTTTTGTTAATTTTT	8.81 ± 0.52
ATAGCCAAAAATCATGCACACCTAAAAAAAAAAAAA [CACACA_site8826]	8.9 ± 0.48
TATATTTATGTATATGTGCACATAAATTTAAGAATG [GTGCAC_site9512]	8.71 ± 0.4
ATTTTTAATCATTTACAACCTAGTGATTATACAAAT [CACACA_negctrl_site1089]	8.56 ± 0.49
CGTATGCGTATATACACACCCACGTATATATATAAA [CACACA_site3200]	8.88 ± 0.39
ATATAATAATTGTACACATGCACACACAAATATTAT [TGCATGCA_site204]	9.47 ± 0.34
TTCATTTTAATAATATGTACATAATATATTTAAAAA [XGTACX_site634]	8.16 ± 0.36
GTATATATATTTGTACGTACATATTGTTGTAAACAC [XGTACX_site8833]	9.14 ± 0.52
AAGAGAGACATCAACACACATACGTATGTATAGAAA [CACACA_site1397]	9.23 ± 0.59
TTTTTTATTGTGATACGTATATTATTTTATGATTAA [GTGCAC_negctrl_site202]	8.7 ± 0.41
GGGGGTAGGGGAAGAAGTACAATGATCACTACAGTA [XGTACX_site1169]	9.045 ± 0.035
ATGTAAATGTTATTATGTACATATTTATTCTTCAAA [XGTACX_site7377]	8.71 ± 0.45
